Measured values published in the supplement of paper PMC11417369.
± gives the standard deviation of the averaged measurements. The list shows a part of the results.

These sequences were tested on PfAP2-LT AP2 domain (GST-tagged) (assay: gcPBM binding intensity (ln(normalized median fluorescence intensity)); higher = stronger DNA binding).
Procedure, shortened: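 Binding intensity is defined as the maximum Masliner-normalised natural-log median intensity across replicate spots for either probe orientation. It was measured on an Agilent 4 × 180k array of primer-extended double-stranded 36-bp intergenic genomic probes and negative controls, to which GST-tagged P. falciparum DNA-binding domains made in E. coli were applied for 1 h in 1× PBS with 1% milk, 0.2 mg/ml BSA, 0.5% salmon testes DNA and 0.03% Triton X-100. Detection was by Alexa488 anti-GST antibody and scanning at 488 nm.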

Row | Sequence | gcPBM binding intensity (ln)
1 | AAGAATAAAGAATGGTGTACATGCATATAAAATATT [XGTACX_site5707] | 9.1 ± 0.47
2 | TTTTATTTCATTTGTTGTACTTTCAAAATATTATTA [XGTACX_site2192] | 8.59 ± 0.49
3 | ATGTTATATATGTATTGTACGTATTTTGTATATTAT [XGTACX_site6607] | 9.26 ± 0.4
4 | AGTGTTTTTTATAAAGTGCAATATAAAAACAAAATG | 8.73 ± 0.45
5 | AATTTTTTTTTATTGTGTACTTATTTTTTTATATTT [XGTACX_site917] | 8.95 ± 0.65
6 | AATATATTTCATTTTTGTACACACAACGTTGGAGGG [XGTACX_site6461] | 9.35 ± 0.3
7 | CAACATATGCATATGTGTACATATTTTATTTTCAAC [XGTACX_site2237] | 8.82 ± 0.42
8 | ACATACATATGTAAATGTACAAAATATCCATAGATT [XGTACX_site2782] | 9.12 ± 0.4
9 | ATATACTCATTAATAACACACAATATGATAACAAAT [CACACA_site5913] | 9.08 ± 0.35
10 | TATATATTATCAAGTGGACACACGAAAAAAAGGAAA [CACACA_site3741] | 8.96 ± 0.52
11 | TTTTTCATATTATACTTTTATATACATATATAAAAA [XGTACX_negctrl_site281] | 8.38 ± 0.55
12 | TAAAGATTGTTCAGTGCATGTTGGCCTGTAAATGGA [TGCATGCA_site315] | 8.67 ± 0.45
13 | ATAATGTAGAACTAGAGTACATAAAAAAATAAACAT [XGTACX_site5205] | 9.21 ± 0.61
14 | TTTTTTTTTTTTTTTTTTTGTCTTATATATTACGGA [CACACA_negctrl_site322] | 8.34 ± 0.4
15 | GCTACACAATTTTTTAGTACACACATATAAATATAT [XGTACX_site3131] | 9.04 ± 0.46
16 | TAAGATATATTTTTTTGTACACATAATAAAATAATA [XGTACX_site8938] | 8.22 ± 0.28
17 | GATAAATCATATATAACACACATATGAATATTACAA [CACACA_site1321] | 8.98 ± 0.35
18 | AAAAGAAACTTATTTACGCACACTTTATTGCATGTT [CACACA_site3887] | 9.16 ± 0.3
19 | GTAATTTTGAGATGATGTACATATTTTTTCCTTGTC [XGTACX_site4103] | 8.94 ± 0.43
20 | ATATATATTTATGTATCACACACAAAAAAAAAAAAT [CACACA_site7973] | 9.19 ± 0.38
21 | AGTTTATTTATATACACACACATATAAATATTATAG [CACACA_site6522] | 9.11 ± 0.42
22 | TTCTTTAAAATATTATGTACACATTGCGAACAGTTT [XGTACX_site5418] | 8.85 ± 0.47

Row | Sequence | gcPBM binding intensity (ln)
23 | TATATATATATATATTGTACTTATGTTTATATTCAT [XGTACX_site6258] | 9.37 ± 0.45
24 | TATGCAAGGAACCACACACACACACCGAAATGTATA [CACACA_site4573] | 10 ± 0.27
25 | TTTTTTATTAGTATCTGTACACATTGGTATTTGTAT [XGTACX_site6682] | 8.99 ± 0.53
26 | AATAAATAAATATATATATATATATAATATCATAAA [CACACA_negctrl_site337] | 8.89 ± 0.41
27 | TTCTTAAAATATGAAAGTACATAGGCATTATATATT [XGTACX_site8400] | 8.46 ± 0.49
28 | ATATAGACACACACATGTACATATGCCAACGTGATA [XGTACX_site3828] | 9.26 ± 0.37
29 | ATAAACTGAGTGGTTACACACAAAACCAATAACTTT [CACACA_site7601] | 9.22 ± 0.42
30 | ACTATATAATATAATATATTATAATATATTATATTA [GTGCAC_negctrl_site140] | 8.47 ± 0.38
31 | AATAATATTTATTTTTGTACATATGTGCATTATAAA [XGTACX_site3682] | 8.69 ± 0.47
32 | TTATAATAAACCTATACACACATAAATAAATAAATA [CACACA_site2581] | 8.91 ± 0.42
33 | TATGTATATATTTGTGCACACCAAAGTTTGATTTTA [CACACA_site1861] | 9.18 ± 0.53
34 | ATGATCATAAAACACACACACAAAAAAAAAAAAAAA [CACACA_site1805] | 9.26 ± 0.44
35 | ATTAATTTTATATATGCACACAAAATATGTTCATAT [CACACA_site9350] | 9.13 ± 0.35
36 | GAATTCAACAAAAAAAGTACTCTACATAAAATAATG [XGTACX_site175] | 8.66 ± 0.34
37 | CCATGCATACATTCTTGTACACATTTCTATTATGAG [XGTACX_site39] | 8.99 ± 0.33
38 | ATATTGATGTATTGTTTTTTTTTTTTCTTTTTTTTT [CACACA_negctrl_site1238] | 8.67 ± 0.51
39 | TACTCACAATGGGGTCTACAAAAAAAAAAAAATAAA [XGTACX_negctrl_site229] | 8.38 ± 0.61
40 | TTATAAAAGGACTTCTGTACGAATTTTTTTTAATAA [XGTACX_site1411] | 8.16 ± 0.4
41 | GAACGAAACTTTCTTACACACATTGAAATTTTTTTC [CACACA_site1779] | 9.09 ± 0.47
42 | TCAAGAATTATATAAACACACATACATACACCCATA [CACACA_site5126] | 9.38 ± 0.2
43 | AAAAATATAAAGAAATGTACTTATAAAAATCCCTAC [XGTACX_site3824] | 8.73 ± 0.34
44 | TTCTGTTCAAAATATGAACACACACCGATATATATA [CACACA_site8637] | 9.1 ± 0.44
